The campaign covered roughly 420,000 compounds. About 50,000 (12%) were called active. Inconclusive means that the source gave no clear call. Such entries were picked first, then a sample of the others. Calls follow the shape of the dose curve; as a rule, active = well fitted inhibition curve with a large enough effect; inconclusive = small, poorly fitted or top-dose-only effect; inactive = flat fitted curve, though single readings scatter. No potency is given beside an inconclusive call; the fits are too rough.
Experiment: qHTS for Inhibitors of human tyrosyl-DNA phosphodiesterase 1 (TDP1): qHTS in cells in presence of CPT; also: nearly all actives have a fitted effect of over 55% in size
Conditions: chicken DT40 Tdp1-/-;hTDP1 cells + 20 nM CPT, ATP luminescence, 48 h; activity change, negative = growth inhibition: at 46.2 µM (top of the series)
Summary of the method: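 Cell growth measured by CellTiter-Glo luminescence after a minimum 48 h, 37 C compound exposure with 20 nM CPT in Tdp1-knockout DT40 cells stably expressing hTDP1, seeded 400/well; qHTS titration format.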
% is scaled to controls: 0 for no effect and ±100 for the full control effect; potency is read from the fitted curve at half-maximal effect; tags tell the direction and shape of the fitted curve.

| Compound | activity change, negative = growth inhibition | Potency |
| --- | --- | --- |
| COC(=O)CNC(=O)C(=O)OC | inactive: 4.78% [at 4.12 µM] | – |
| CN1C(=O)c2ccccc2Sc2ccc(NC(=O)Cc3ccc(Cl)cc3)cc21 | – | inconclusive [inhibitor, single point] |
| CC(C)(C)c1ccccc1NC(=O)c1cc(-c2ccncc2)nc2ccccc12 | – | inconclusive [inhibitor, partial curve] |
| CC(C)n1cc(/C=N/NC(=O)COc2cccc3cccnc23)c2ccccc21 | – | inconclusive [inhibitor, single point] |
| COc1ccc(OC)c(C2CC(=O)C3=C(C2)NC(=O)CC3c2ccc(O)c(OC)c2)c1 (centres undefined) | – | inconclusive [inhibitor, single point] |
| Cc1sc(C(=O)Nc2ccc3ccccc3c2)cc1CC(=O)O | inactive: -0.184% | – |
| Cc1cccc(N(C)S(=O)(=O)c2nnc(NC(=O)C(C)Oc3ccccc3)s2)c1 (centres undefined) | – | inconclusive [inhibitor, single point] |
| CCOc1ccc(N(CC(=O)NC2CCC(C)CC2)S(=O)(=O)c2c(C)noc2C)cc1 (centres undefined) | – | inconclusive [inhibitor, partial curve] |
| O=C(COc1cc(Cl)c(Cl)cc1Cl)NC(=O)NC1CCCC1 | – | inconclusive [inhibitor, partial curve, poor fit] |
| CC(=O)c1cc(CN2CCN(C3CCN(C(C)C)CC3)C(CCO)C2)cs1 (centres undefined) | inactive: -19.3% | – |
| CN(C(=O)CSc1nc2ccccc2c(=O)n1-c1ccccc1Cl)C1CCS(=O)(=O)C1 (centres undefined) | inactive: -22.9% | – |
| Cc1nn(-c2ccccc2)c(C)c1C(=O)OCC(=O)NC12CC3CC(CC(C3)C1)C2 | – | inconclusive [inhibitor, single point] |
| NCCCNc1ccc(Br)cn1 | inactive: 1.78% | – |
| CCc1c(C)nc(N2CCN(c3ccc(Cl)cc3)CC2)[nH]c1=O | – | inconclusive [inhibitor, partial curve] |
| CC1=C(C(=O)N2CCCC(N3CCN(c4cccc(Cl)c4)CC3)C2)OCCO1 (centres undefined) | – | inconclusive [inhibitor, single point] |
| NC(=O)CC(NC(=O)Cc1ccc(Cl)cc1)c1ccc(NC2CC3CCC2C3)c([N+](=O)[O-])c1 (centres undefined) | – | inconclusive [inhibitor, partial curve] |
| COc1cc(C(C)=O)ccc1OCC(=O)Nc1ccccc1N1CCCCC1 | – | active: 9.2 µM |
| Cc1nn(C2CCS(=O)(=O)C2)c(C)c1CN(C)C(=O)c1ccc(F)cc1 (centres undefined) | inactive: -4.45% | – |
| COc1ccc(OC)c(CCNC(=O)c2ccc3c(c2)N(Cc2ccccc2)CCS3)c1 | – | active: 23.1 µM |
| Cc1ccccc1OC1(C)CCN(Cc2ccc3ccccc3c2)C1 (centres undefined) | – | inconclusive [inhibitor, single point] |
| O=C(NCC1CCCO1)c1cc2n(n1)C(C(F)(F)F)CC(c1ccc(F)cc1)N2 (centres undefined) | inactive: -19.8% | – |
| Cc1cc(C)n(-c2ncnc3ccccc23)n1 | inactive: 12% | – |
| O=C(CSC(=S)N1CCOCC1)Nc1ncc2c(n1)CC(c1ccco1)CC2=O (centres undefined) | inactive: 6.14% | – |
| COc1ccc(NC(=O)C2Cc3c(-c4cccc(C(C)=O)c4)ccnc3O2)cn1 (centres undefined) | – | active: 2.59 µM |
| CCOC(=O)c1cccc(NC(=O)C2COc3ccc(OC)cc3C2)c1 (centres undefined) | – | inconclusive [inhibitor, single point] |

| Compound | activity change, negative = growth inhibition | Potency |
| --- | --- | --- |
| Cc1cc(=O)oc2c(C)c(OCC(=O)N3CCN(c4cccc(Cl)c4)CC3)ccc12 | – | active: 20.6 µM |
| COc1ccc(C(CNC(=O)c2oc3ccc(F)cc3c2C)N2CCCCC2)cc1 (centres undefined) | – | inconclusive [inhibitor, single point] |
| CCOC(=O)N1CCN(c2c(N3CC=C(c4ccccc4)CC3)c(=O)c2=O)CC1 | – | active: 20.6 µM |
| CC1=CC(C)(C)Nc2ccc(OC(=O)C(C)N3C(=O)c4ccccc4C3=O)cc21 (centres undefined) | – | active: 2.06 µM |
| CN(C)C(=O)c1c([N+](=O)[O-])ncn1C | inactive: -0.491% | – |
| CC(Oc1ccc(C(C)(C)C)cc1)c1ccnc2nc(/N=C/N(C)C)nn12 (centres undefined) | – | active: 15.8 µM |
| COc1ccc(N2CCC(CNC(=O)Nc3ccccc3)C2)cc1 (centres undefined) | inactive: -7.51% | – |
| COc1ccc(C)cc1NC(=O)CSc1nc(=O)n(Cc2ccco2)c2c1CCC2 | – | inconclusive [inhibitor, single point] |
| CCOc1ccc(NC(=S)NN(C)C(=S)Nc2ccc(OCC)cc2)cc1 | – | inconclusive [inhibitor, single point] |
| COc1ccccc1NCC(=O)NC(=O)NC1CCCCC1 | – | inconclusive [inhibitor, single point] |
| CC(C)(C)c1ccc(CCC2OCC(CN3CCOCC3)O2)cc1 (centres undefined) | – | active: 20.6 µM |
| CC(Sc1ncccn1)C(=O)NC1(C#N)CCCCC1 (centres undefined) | inactive: 9.88% | – |
| CCCCc1ccc(NC(=O)Cn2cnc3c(oc4ccccc43)c2=O)cc1 | inactive: -0.576% | – |
| Cc1cc(/C=c2\sc3nc4ccccc4n3c2=O)c(C)n1-c1ccc(C(=O)O)cc1 | – | active: 13 µM |
| c1cc2ccc3ccc(-n4cnnn4)c4ccc(c1)c2c34 | inactive: -3.77% | – |
| N#Cc1c(NCCN)nc(-c2ccccc2)c2c1CCCC2 | – | inconclusive [inhibitor, single point] |
| O=C(CN1CCN(C(=O)c2ccccc2)CC1)Nc1cc(S(=O)(=O)N2CCCC2)ccc1Cl | – | inconclusive [inhibitor, single point] |
| Cc1ccc(N2C(=O)N(CC(=O)Nc3cc(Cl)ccc3C)C(=O)C2C)cc1 (centres undefined) | – | inconclusive [inhibitor, single point] |
| Cc1cccc(C)c1NC(=S)N(c1ccccc1)C(C)C | inactive: 1.2% | – |
| COC(=O)/C=C1\SC(=NC(=O)c2ccc(-c3ccccc3)cc2)NC1=O | – | inconclusive [inhibitor, single point] |
| COc1ccc([N+](=O)[O-])cc1NC(=O)C(C)OC(=O)CSC(C)C(=O)Nc1cc(C)on1 (centres undefined) | inactive: 0.0732% | – |
| CC(C)(C)OC(=O)N(CCc1ccccc1)Cc1ccc(OCc2cccc(NC(=O)/C=C/c3ccccc3)c2)cc1 | inactive: -19.6% | – |
| Cc1nc2ccccn2c(=O)c1NC(=O)c1cccc2ccccc12 | inactive: -26.6% | – |
| CNc1nc(Cl)nc2c1ncn2-c1ccccc1 | inactive: 10.4% | – |

— PubChem BioAssay AID686979 (National Center for Advancing Translational Sciences (NCATS), 2013)
